Data taken from PMC4336329 (PLoS ONE, 2015).
Among all 310,000 compounds or so, about 2,200 (0.71%) showed an effect of 50% or more. The effect is printed as a negative number. The list shows a part of the results.

These compounds were tested against human ether-à-go-go-related gene (hERG) potassium channel (human, UniProt Q12809) (assay: primary screen, population patch clamp on CHO cells stably expressing hERG).
Sequence of human ether-à-go-go-related gene (hERG) potassium channel (Q12809 whole entry, looked up): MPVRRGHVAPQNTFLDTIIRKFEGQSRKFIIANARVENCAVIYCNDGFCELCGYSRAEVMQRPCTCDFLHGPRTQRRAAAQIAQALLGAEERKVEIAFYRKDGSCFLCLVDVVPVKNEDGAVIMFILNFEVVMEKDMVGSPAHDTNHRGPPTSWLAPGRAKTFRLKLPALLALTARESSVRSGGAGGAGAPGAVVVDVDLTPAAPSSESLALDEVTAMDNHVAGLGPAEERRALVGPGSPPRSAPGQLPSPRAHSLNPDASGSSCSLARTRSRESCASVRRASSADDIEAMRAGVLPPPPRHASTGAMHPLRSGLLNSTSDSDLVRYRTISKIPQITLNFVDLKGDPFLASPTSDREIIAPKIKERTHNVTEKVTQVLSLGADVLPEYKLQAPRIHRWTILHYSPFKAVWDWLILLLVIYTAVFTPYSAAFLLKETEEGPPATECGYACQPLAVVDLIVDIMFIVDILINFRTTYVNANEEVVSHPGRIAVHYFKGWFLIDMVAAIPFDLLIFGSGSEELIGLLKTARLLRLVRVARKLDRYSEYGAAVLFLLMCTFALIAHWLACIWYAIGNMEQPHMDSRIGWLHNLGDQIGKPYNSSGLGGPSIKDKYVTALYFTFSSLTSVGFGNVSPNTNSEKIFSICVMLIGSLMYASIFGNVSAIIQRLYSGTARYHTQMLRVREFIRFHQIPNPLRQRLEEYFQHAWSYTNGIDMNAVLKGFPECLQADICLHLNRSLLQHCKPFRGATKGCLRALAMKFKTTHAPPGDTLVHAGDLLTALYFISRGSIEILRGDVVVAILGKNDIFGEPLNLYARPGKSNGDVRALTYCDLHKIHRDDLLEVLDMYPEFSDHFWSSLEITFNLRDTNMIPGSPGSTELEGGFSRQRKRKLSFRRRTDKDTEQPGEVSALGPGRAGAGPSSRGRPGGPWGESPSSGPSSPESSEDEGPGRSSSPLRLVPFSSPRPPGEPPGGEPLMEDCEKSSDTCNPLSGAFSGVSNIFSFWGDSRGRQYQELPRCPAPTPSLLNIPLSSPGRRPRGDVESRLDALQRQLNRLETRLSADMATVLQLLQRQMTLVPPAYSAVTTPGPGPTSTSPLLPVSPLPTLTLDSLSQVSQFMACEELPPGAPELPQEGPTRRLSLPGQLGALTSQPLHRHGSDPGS
In the case of `Cn1c(SCC(=O)Nc2cccc(F)c2)nnc1-c1cc2ccccc2o1`, the “hERG current change (%, negative = inhibition) at 1uM” value was 10.5%.
`CC(=O)c1ccc(NC(=O)CCCCCn2nnc3ccccc3c2=O)cc1` was tested, and the “hERG current change (%, negative = inhibition) at 1uM” value was 9.23%.
In the case of `C=CCN(C(=O)CCC(=O)Nc1cc(C)on1)C(C(=O)NC1CCCC1)c1cccnc1` (stereo not shown), the “hERG current change (%, negative = inhibition) at 1uM” value was 11.2%.
For `COCCNC(=O)C(C)N(c1ccc(OC)cc1)S(C)(=O)=O` (stereo not shown), the “hERG current change (%, negative = inhibition) at 1uM” value was 3.04%.
In the case of `Cc1nnc(SCC(=O)Nc2nc(-c3ccc(F)cc3)cs2)[nH]c1=O`, the “hERG current change (%, negative = inhibition) at 1uM” value was 8.8%.
With `O=C(CSc1nnc(-c2c[nH]c3ccccc23)o1)c1ccccc1` the “hERG current change (%, negative = inhibition) at 1uM” value was 5.05%.
`CC(Sc1nc2ccccc2c(=O)n1CC1CCCO1)C(=O)N(C)Cc1ccccc1` (stereo not shown) was tested, and the “hERG current change (%, negative = inhibition) at 1uM” value was -16.1%.
With `CN(C(=O)c1ccco1)c1nc(-c2ccc(Cl)cc2)cs1` the “hERG current change (%, negative = inhibition) at 1uM” value was 7.02%.
In the case of `COC(=O)C1=C(C)N(Cc2ccccc2)C(=NCCCCO)N[C@H]1c1ccccc1`, the “hERG current change (%, negative = inhibition) at 1uM” value was 1.53%.
For `N#Cc1nc(COc2cccc(Cl)c2)oc1N1CCCC1`, the “hERG current change (%, negative = inhibition) at 1uM” value was 10.3%.
In the case of `COc1cc(CN2CCCCCC2)cc(OC)c1`, the “hERG current change (%, negative = inhibition) at 1uM” value was 12.5%.
For `O=c1c2cc(NC(=S)N3CCCCCC3)ccc2nc2n1CCCCC2`, the “hERG current change (%, negative = inhibition) at 1uM” value was 0.0359%.
`CCOC(=O)c1ccc2[nH]c(C)c(CCC(C)=O)c(=O)c2c1` was tested, and the “hERG current change (%, negative = inhibition) at 1uM” value was 7.58%.
`CCc1cccc(NC(=O)C2CCCN(S(=O)(=O)c3cccs3)C2)c1` (stereo not shown) was tested, and the “hERG current change (%, negative = inhibition) at 1uM” value was 7.86%.
`Cc1ccc(N2CC(NC(=O)C(=O)c3c(C)[nH]c4ccccc34)CC2=O)cc1C` (stereo not shown) was tested, and the “hERG current change (%, negative = inhibition) at 1uM” value was 7.65%.
In the case of `Fc1ccc(Cl)cc1/C=N/n1cnnc1SCc1ccccc1`, the “hERG current change (%, negative = inhibition) at 1uM” value was 16.1%.
`O=C(O)/C(=C\c1ccco1)NC(=O)c1ccco1` was tested, and the “hERG current change (%, negative = inhibition) at 1uM” value was 13.9%.
For `Cc1ccc(S(=O)(=O)NC(N)=NCCc2ccc(Cl)cc2)cc1`, the “hERG current change (%, negative = inhibition) at 1uM” value was 13.3%.
`COC(=O)c1sc(NC(=O)CSc2n[nH]c(N)n2)c(C(=O)OC)c1C` was tested, and the “hERG current change (%, negative = inhibition) at 1uM” value was 10.5%.
`CCCCCCNC(=O)N[C@H](Cc1ccc(O)cc1)C(=O)NCCC[C@H]1CN2C(=NC[C@H]2CCC)N1CC1CCC1` was tested, and the “hERG current change (%, negative = inhibition) at 1uM” value was 15.3%.
With `S=C(Nc1ccc(Oc2ccccc2)cc1)NC1CCCC1` the “hERG current change (%, negative = inhibition) at 1uM” value was 9.65%.
With `O=C1NCCN1CCNS(=O)(=O)c1ccc(F)cc1` the “hERG current change (%, negative = inhibition) at 1uM” value was 9.41%.
In the case of `CCN(C(=O)C(=O)c1c[nH]c2ccccc12)c1ccccc1`, the “hERG current change (%, negative = inhibition) at 1uM” value was 12.1%.
In the case of `CC(=O)Nc1ccc(S(=O)(=O)NCC(=O)OCC(=O)c2cc(C)n(-c3ccc4c(c3)OCO4)c2C)cc1`, the “hERG current change (%, negative = inhibition) at 1uM” value was 5.91%.
With `CC(=O)OCC1=C[C@@H]2OC(=O)C3=CO[C@@H](O[C@@H]4O[C@H](CO)[C@@H](O)[C@H](O)[C@H]4O)[C@H]1[C@@H]32` the “hERG current change (%, negative = inhibition) at 1uM” value was 12.9%.
